# The other results are listed elsewhere or left out.
# B1: TbCVNHOb (Tuber borchii) (protein)
# chain: MSFYASSEDVRTIEEGGRTWLVGRARRADGSWQDIKLDLDNIIGNRDGHLTWGEQNFTQSASDIRFNFEGGSNVPVLRAKLRNAAGGEQESDLNLGERLTNNNGDLVFN
# Assays:
# Assay in all cases: glycan array binding signal (z-score within array); higher = stronger binding
# Settings in all cases: glycan notation: IUPAC condensed, linker removed
# Man(a1-3)[Man(a1-6)]Man = molecular target: Man(a1-3)[Man(a1-6)]Man
# Method in brief: (§1)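 Negative Z-scores can be read as non-binding. The Z-score is calculated within each array and then averaged across arrays of one protein sequence at different concentrations or buffers and across linkers. Arrays, 3228 in all, were curated from the Consortium for Functional Glycomics database and kept only where the protein sequence was available.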
# [1] = molecular target: Man(a1-3)[Man(a1-6)]Man(a1-6)[Man(a1-2)Man(a1-3)]Man(b1-4)GlcNAc(b1-4)GlcNAc
# Method in brief: as §1
# [2] = molecular target: Man(a1-3)[Man(a1-6)]Man(a1-6)[Man(a1-3)]Man
# Method in brief: as §1
# [3] = molecular target: Man(a1-3)[Man(a1-6)]Man(a1-6)[Man(a1-3)]Man(b1-4)GlcNAc(b1-4)GlcNAc
# Method in brief: as §1
# [4] = molecular target: Man(a1-3)[Man(a1-6)]Man(b1-4)GlcNAc(b1-4)GlcNAc
# Method in brief: as §1
# Man(a1-6)Man = molecular target: Man(a1-6)Man
# Method in brief: as §1
# Man(b1-4)GlcNAc = molecular target: Man(b1-4)GlcNAc
# Method in brief: as §1
# Neu5Ac(a2-3)Gal = molecular target: Neu5Ac(a2-3)Gal
# Method in brief: as §1
# [5] = molecular target: Neu5Ac(a2-3)Gal(b1-3)GalNAc
# Method in brief: as §1
# [6] = molecular target: Neu5Ac(a2-3)Gal(b1-3)GalNAc(b1-3)Gal(a1-4)Gal(b1-4)Glc
# Method in brief: as §1
# [7] = molecular target: Neu5Ac(a2-3)Gal(b1-3)GalNAc(b1-3)Gal(b1-4)GlcNAc
# Method in brief: as §1
# [8] = molecular target: Neu5Ac(a2-3)Gal(b1-3)GalNAc(b1-4)[Neu5Ac(a2-3)]Gal(b1-4)Glc
# Method in brief: as §1
# [9] = molecular target: Neu5Ac(a2-3)Gal(b1-3)GalNAc6S
# Method in brief: as §1
# [10] = molecular target: Neu5Ac(a2-3)Gal(b1-3)GlcNAc
# Method in brief: as §1
# [11] = molecular target: Neu5Ac(a2-3)Gal(b1-3)GlcNAc(b1-3)Gal(b1-3)GlcNAc
# Method in brief: as §1
# [12] = molecular target: Neu5Ac(a2-3)Gal(b1-3)GlcNAc6S
# Method in brief: as §1
# [13] = molecular target: Neu5Ac(a2-3)Gal(b1-3)[Fuc(a1-4)]GlcNAc
# Method in brief: as §1
# [14] = molecular target: Neu5Ac(a2-3)Gal(b1-3)[Fuc(a1-4)]GlcNAc(b1-3)Gal(b1-4)[Fuc(a1-3)]GlcNAc
# Method in brief: as §1
# [15] = molecular target: Neu5Ac(a2-3)Gal(b1-3)[Neu5Ac(a2-3)Gal(b1-4)]GlcNAc
# Method in brief: as §1
# [16] = molecular target: Neu5Ac(a2-3)Gal(b1-3)[Neu5Ac(a2-6)]GalNAc
# Method in brief: as §1
# Neu5Ac(a2-3)Gal(b1-4)Glc = molecular target: Neu5Ac(a2-3)Gal(b1-4)Glc
# Method in brief: as §1
# [17] = molecular target: Neu5Ac(a2-3)Gal(b1-4)GlcNAc
# Method in brief: as §1
# [18] = molecular target: Neu5Ac(a2-3)Gal(b1-4)GlcNAc(b1-2)Man(a1-3)[GlcNAc(b1-2)Man(b1-4)GlcNAc(b1-2)Man(a1-6)]Man(b1-4)GlcNAc(b1-4)GlcNAc
# Method in brief: as §1
# [19] = molecular target: Neu5Ac(a2-3)Gal(b1-4)GlcNAc(b1-2)Man(a1-3)[Neu5Ac(a2-6)Gal(b1-4)GlcNAc(b1-2)Man(a1-6)]Man(b1-4)GlcNAc(b1-4)GlcNAc
# Method in brief: as §1
# [20] = molecular target: Neu5Ac(a2-3)Gal(b1-4)GlcNAc(b1-3)Gal(b1-3)GlcNAc
# Method in brief: as §1
# [21] = molecular target: Neu5Ac(a2-3)Gal(b1-4)GlcNAc(b1-3)Gal(b1-4)GlcNAc
# Method in brief: as §1
# [22] = molecular target: Neu5Ac(a2-3)Gal(b1-4)GlcNAc(b1-3)Gal(b1-4)GlcNAc(b1-3)Gal(b1-4)GlcNAc
# Method in brief: as §1
# [23] = molecular target: Neu5Ac(a2-3)Gal(b1-4)GlcNAc(b1-3)Gal(b1-4)[Fuc(a1-3)]GlcNAc
# Method in brief: as §1
# [24] = molecular target: Neu5Ac(a2-3)Gal(b1-4)GlcNAc(b1-6)[Gal(b1-3)]GalNAc
# Method in brief: as §1
# [25] = molecular target: Neu5Ac(a2-3)Gal(b1-4)GlcNAc(b1-6)[Neu5Ac(a2-3)Gal(b1-3)]GalNAc
# Method in brief: as §1
# [26] = molecular target: Neu5Ac(a2-3)Gal(b1-4)GlcNAc6S
# Method in brief: as §1
# [27] = molecular target: Neu5Ac(a2-3)Gal(b1-4)[Fuc(a1-3)]GlcNAc
# Method in brief: as §1
# [28] = molecular target: Neu5Ac(a2-3)Gal(b1-4)[Fuc(a1-3)]GlcNAc(b1-3)Gal
# Method in brief: as §1
# [29] = molecular target: Neu5Ac(a2-3)Gal(b1-4)[Fuc(a1-3)]GlcNAc(b1-3)Gal(b1-4)GlcNAc
# Method in brief: as §1
# [30] = molecular target: Neu5Ac(a2-3)Gal(b1-4)[Fuc(a1-3)]GlcNAc(b1-3)Gal(b1-4)[Fuc(a1-3)]GlcNAc(b1-3)Gal(b1-4)[Fuc(a1-3)]GlcNAc
# Method in brief: as §1
# [31] = molecular target: Neu5Ac(a2-3)Gal(b1-4)[Fuc(a1-3)]GlcNAc(b1-6)[Gal(b1-3)]GalNAc
# Method in brief: as §1
# [32] = molecular target: Neu5Ac(a2-3)Gal(b1-4)[Fuc(a1-3)]GlcNAc6S
# Method in brief: as §1
# [33] = molecular target: Neu5Ac(a2-3)Gal6S(b1-4)GlcNAc
# Method in brief: as §1
# [34] = molecular target: Neu5Ac(a2-3)Gal6S(b1-4)[Fuc(a1-3)]GlcNAc
# Method in brief: as §1
# Neu5Ac(a2-3)GalNAc = molecular target: Neu5Ac(a2-3)GalNAc
# Method in brief: as §1
# [35] = molecular target: Neu5Ac(a2-3)GalNAc(b1-4)GlcNAc
# Method in brief: as §1
# [36] = molecular target: Neu5Ac(a2-3)[GalNAc(b1-4)]Gal(b1-4)Glc
# Method in brief: as §1
# [37] = molecular target: Neu5Ac(a2-3)[GalNAc(b1-4)]Gal(b1-4)GlcNAc
# Method in brief: as §1
# [38] = molecular target: Neu5Ac(a2-3)[Neu5Ac(a2-6)]GalNAc
# Method in brief: as §1
# Neu5Ac(a2-6)Gal = molecular target: Neu5Ac(a2-6)Gal
# Method in brief: as §1
binder,measurement,setting,value
B1,glycan array binding signal (z-score),Man(a1-3)[Man(a1-6)]Man,-0.037
same,glycan array binding signal (z-score),[1],-0.153
same,glycan array binding signal (z-score),[2],-0.153
same,glycan array binding signal (z-score),[3],0.196
same,glycan array binding signal (z-score),[4],-0.184
same,glycan array binding signal (z-score),Man(a1-6)Man,-0.16
same,glycan array binding signal (z-score),Man(b1-4)GlcNAc,-0.309
same,glycan array binding signal (z-score),Neu5Ac(a2-3)Gal,-0.241
same,glycan array binding signal (z-score),[5],-0.21
same,glycan array binding signal (z-score),[6],0.054
same,glycan array binding signal (z-score),[7],-0.124
same,glycan array binding signal (z-score),[8],-0.096
same,glycan array binding signal (z-score),[9],-0.237
same,glycan array binding signal (z-score),[10],-0.255
same,glycan array binding signal (z-score),[11],-0.262
same,glycan array binding signal (z-score),[12],-0.117
same,glycan array binding signal (z-score),[13],-0.255
same,glycan array binding signal (z-score),[14],0.391
same,glycan array binding signal (z-score),[15],-0.292
same,glycan array binding signal (z-score),[16],-0.103
same,glycan array binding signal (z-score),Neu5Ac(a2-3)Gal(b1-4)Glc,-0.074
same,glycan array binding signal (z-score),[17],-0.286
same,glycan array binding signal (z-score),[18],-0.16
same,glycan array binding signal (z-score),[19],0.237
same,glycan array binding signal (z-score),[20],-0.07
same,glycan array binding signal (z-score),[21],-0.383
same,glycan array binding signal (z-score),[22],-0.237
same,glycan array binding signal (z-score),[23],-0.263
same,glycan array binding signal (z-score),[24],-0.328
same,glycan array binding signal (z-score),[25],-0.18
same,glycan array binding signal (z-score),[26],-0.266
same,glycan array binding signal (z-score),[27],-0.274
same,glycan array binding signal (z-score),[28],-0.215
same,glycan array binding signal (z-score),[29],0.292
same,glycan array binding signal (z-score),[30],-0.228
same,glycan array binding signal (z-score),[31],-0.124
same,glycan array binding signal (z-score),[32],-0.172
same,glycan array binding signal (z-score),[33],-0.274
same,glycan array binding signal (z-score),[34],-0.293
same,glycan array binding signal (z-score),Neu5Ac(a2-3)GalNAc,-0.303
same,glycan array binding signal (z-score),[35],-0.296
same,glycan array binding signal (z-score),[36],-0.379
same,glycan array binding signal (z-score),[37],-0.165
same,glycan array binding signal (z-score),[38],-0.328
same,glycan array binding signal (z-score),Neu5Ac(a2-6)Gal,-0.075

# — the supplement of paper PMC8728848
